Some of the results follow. Sequences were assembled here from the parent chain. Inactive controls read about 0.05.
B1: TEV protease; numbered along this chain (parent)
chain: MGESLFKGPRDYNPISSSICHLTNESDGHTTSLYGIGFGPFIITNKHLFRRNNGTLVVQSLHGVFKVKDTTTLQQHLVDGRDMIIIRMPKDFPPFPQKLKFREPQREERICLVTTNFQTKSMSSMVSDTSCTFPSGDGIFWKHWIQTKDGQCGSPLVSTRDGFIVGIHSASNFTNTNNYFTSVPKNFMELLTNQEAQQWVSGWRLNADSVLWGGHKVFMVKPEEPFQPVKEATQL

Variants of: B1
Test: raw area under fraction-flipped curve 0-4 h after induction (AUC4h, not background-subtracted), DNA-recorder readout of cleavage of the substrate (dimensionless); higher = more cleavage of the substrate by the protease variant
Details: temperature: 34 °C; time window: 0-4 h after rhamnose induction
Method: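 In vivo DNA recorder in E. coli TOP10(DE3) ΔrhaA at 34 °C. Each TEVp single-site mutant (parent TEVp 0) is paired with a single-site variant of the 7-mer TEVs (canonical ENLYFQ|S). The substrate sits between flexible linkers in a Bxb1-sfGFP-TEVs-SsrA fusion, so cleavage stabilises Bxb1 and speeds flipping of a recombination array, read by NGS. The value is the raw area under the fraction-flipped curve over 0-4 h after rhamnose induction (AUC4h), with ≥20 reads per time point. It is not background-subtracted; inactive controls average about 0.047.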
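Also: Bxb1 expression induced with 0.2% (w/v) L-rhamnose at OD600 near 0.5, cultures sampled hourly, flipped fraction per protease–substrate barcode pair counted by paired-end Illumina sequencing.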

Variant | area with substrate ENLYFQA | area with substrate ENLYFQC | area with substrate ENLYFQD | area with substrate ENLYFQG | area with substrate ENLYFQI | area with substrate ENLYFQK | area with substrate ENLYFQL | area with substrate ENLYFQM | area with substrate ENLYFQN | area with substrate ENLYFQP | area with substrate ENLYFQR | area with substrate ENLYFQS | area with substrate ENLYFQV | area with substrate ENLYFQW | area with substrate ENLYFQQ | area with substrate ENLYFQT | area with substrate ENLYFQF | area with substrate ENLYFQH | area with substrate ENLYFQY | area with substrate ENLYFQE
MGESLFKGPRDYNPISSSICHLTNESDGHTTSLYGIGFGPFIITNKHLFRRNNGTLVVQSLHGVFKVKDTTTLQQHLVDGRDMIIIRMPKDFPPFPQKLKFREPQREERICLVTTNFATKSMSSMVSDTSCTFPSGDGIFWKHWIQTKDGQCGSPLVSTRDGFIVGIHSASNFTNTNNYFTSVPKNFMELLTNQEAQQWVSGWRLNADSVLWGGHKVFMVKPEEPFQPVKEATQL [Q118A] | 0.0924 | 0.0813 | 0.0729 | 0.0852 | 0.054 | 0.0531 | 0.0643 | 0.0636 | 0.0799 | 0.0598 | 0.0077 | 0.104 | 0.0623 | 0.0551 | – | – | – | – | – | –
MGESLFKGPRDYNPISSSICHLTNESDGHTTSLYGIGFGPFIITNKHLFRRNNGTLVVQSLHGVFKVKDTTTLQQHLVDGRDMIIIRMPKDFPPFPQKLKFREPQREERICLVTTNFQTKSMSSMVSDTSCTFPSGDGIFWKHWIQTKDGQCGSPLVSTRDGFIVGIHSASNFTNTNNYFTSVPKNFMELLTNQEAQQWVSGWRLNADSVLMGGHKVFMVKPEEPFQPVKEATQL [W212M] | 0.121 | 0.139 | – | 0.113 | 0.0704 | 0.0592 | 0.0683 | 0.113 | 0.101 | – | 0.061 | 0.126 | – | 0.0668 | 0.0841 | 0.0776 | – | – | – | –
MGESLFKGPRDYNPISSSICHLTNESDGHTTSLYGIGFGPFDITNKHLFRRNNGTLVVQSLHGVFKVKDTTTLQQHLVDGRDMIIIRMPKDFPPFPQKLKFREPQREERICLVTTNFQTKSMSSMVSDTSCTFPSGDGIFWKHWIQTKDGQCGSPLVSTRDGFIVGIHSASNFTNTNNYFTSVPKNFMELLTNQEAQQWVSGWRLNADSVLWGGHKVFMVKPEEPFQPVKEATQL [I42D] | 0.0447 | – | – | – | – | 0.047 | 0.0509 | 0.0497 | 0.0439 | – | – | 0.0447 | – | 0.0416 | – | 0.0464 | 0.035 | 0.0422 | – | –
MGESLFKGPRDYNPISSSICHLTNESDGHTTSLYGIGFGPFIITNKHLFRRNNGTLVVQSLHGVFKVKDTTTLQQHLVDGRDMIIIRMPKDFPPFPQKLKFREPQREPRICLVTTNFQTKSMSSMVSDTSCTFPSGDGIFWKHWIQTKDGQCGSPLVSTRDGFIVGIHSASNFTNTNNYFTSVPKNFMELLTNQEAQQWVSGWRLNADSVLWGGHKVFMVKPEEPFQPVKEATQL [E108P] | 0.0609 | 0.0443 | 0.049 | – | – | 0.0481 | – | 0.0535 | – | 0.0519 | – | 0.0614 | – | 0.0258 | – | – | 0.0437 | 0.0503 | – | –
MGESLFKGPRDYNPISSSICHLTNESDGHTTSLYGIGFGPFIITNKHLFRRNNGTLVVQSLHGVFKVKDTTTLQQHLVDGRDMIIIRMPKDFPPFPQKLKFREPQREERICLVTTNFQTKSMSSMVSDTSCTFPSGDGIFWKHWIQTKDGQCGSPLVSTRDGFIVGIHSASNFTNTNNYFTSVPKNFMELLTNQEAQQWVSGWRLNADSVLWGGHKVFMVKPEMPFQPVKEATQL [E224M] | 0.0757 | 0.0848 | – | 0.074 | – | 0.0618 | – | 0.0921 | 0.0764 | – | 0.0445 | 0.0946 | – | 0.0645 | 0.0651 | 0.0829 | – | – | – | –
MGESLFKGPRDYNPISSSICHLTNESDGHTTSLYGIGFGPFIITNKHLFRRNNGTLVVQSLHGVFKVKDTTTLQQHLVDGRDMIIIRMPKDFPPFPQKLKFREPQREERICLVTTNFQTKSMSSMVSDTSCTFPSGDGIFWKHWIQTKDGQCGSPLVSTRDGFIVGIHSASNFTNTNNYFTSIPKNFMELLTNQEAQQWVSGWRLNADSVLWGGHKVFMVKPEEPFQPVKEATQL [V183I] | 0.107 | – | – | 0.0637 | – | – | – | – | 0.0829 | 0.057 | 0.0428 | 0.0989 | 0.0678 | – | 0.0894 | 0.0614 | – | 0.0793 | 0.0649 | –
MGESLFKGPRDYNPISSSICHLTNESDGHTTSLYGIGFGPFIITNKHLFLRNNGTLVVQSLHGVFKVKDTTTLQQHLVDGRDMIIIRMPKDFPPFPQKLKFREPQREERICLVTTNFQTKSMSSMVSDTSCTFPSGDGIFWKHWIQTKDGQCGSPLVSTRDGFIVGIHSASNFTNTNNYFTSVPKNFMELLTNQEAQQWVSGWRLNADSVLWGGHKVFMVKPEEPFQPVKEATQL [R50L] | 0.0924 | 0.14 | – | 0.145 | – | – | – | 0.079 | 0.101 | 0.056 | 0.0579 | 0.131 | 0.0481 | 0.0631 | 0.0743 | 0.0656 | – | 0.11 | – | –
MGESLFKGPRDYNPISSSICHLTNESDGHTTSLYGIGFGPFIITNKHLFRRNNGTLVVQSLHGVFKVKDTTTLQQHLVDGRDMIIIRMPKDFPPFPQKLKFREPQREERICLVTTNFQTKSMSSMVSDTSCTFPSGDGIFWKHWIQTKQGQCGSPLVSTRDGFIVGIHSASNFTNTNNYFTSVPKNFMELLTNQEAQQWVSGWRLNADSVLWGGHKVFMVKPEEPFQPVKEATQL [D149Q] | 0.1 | 0.106 | – | – | – | 0.0539 | 0.0583 | 0.0677 | – | 0.0519 | 0.0668 | 0.0883 | – | 0.0506 | – | – | – | – | 0.0953 | –
MGESLFKGPRDYNPISSSICHLTNESDGHTTSLYGIGFGPFIITNKHLFRRNNGTLVVQSLHGVFKVKDTTTLQQHLVDGRDMIIIRMPKDFPPFPQKLKFREPQREERICLVTTNFQTKSMSSMVSDTSCTFPSGDGIFWKHWIQTKDGQCGSPLVSYRDGFIVGIHSASNFTNTNNYFTSVPKNFMELLTNQEAQQWVSGWRLNADSVLWGGHKVFMVKPEEPFQPVKEATQL [T159Y] | 0.108 | 0.117 | – | – | 0.0749 | – | 0.064 | 0.0923 | 0.0721 | 0.0748 | 0.0605 | 0.103 | 0.0625 | 0.0591 | 0.0663 | – | 0.0507 | 0.0762 | – | –
MGESLFKGPRDYNPISSSICHLTNESDGHTTSLYGIGFGPFIITNKHLFRRNNGTLVVQSLHGVFKVKDTTTLQQHLVDGRDMIIIRMPKDFPPFPQKLKFREPQREERICLVTTNFQTKSMSSMVSDTSCTFPSGDGIFWKHWIQTKDGQCGSPLVSTRDGFIVGIHSASNFTNTNNYFTSVPKNFMELLTPQEAQQWVSGWRLNADSVLWGGHKVFMVKPEEPFQPVKEATQL [N193P] | 0.0592 | 0.0955 | – | – | – | 0.058 | 0.0609 | 0.0448 | 0.0531 | 0.0588 | 0.0536 | 0.0714 | 0.0532 | 0.0209 | – | 0.0589 | – | 0.0353 | 0.0551 | 0.0691
